Measured values published in the supplement of paper PMC4604168 (melanoma cell lines).
The other results are listed elsewhere or left out. Repeats are few or missing, and single values can be far off.

Each molecule was assayed on WM3619 (assay: cell count relative to DMSO control; melanoma cells; higher = more viable cells). Details: library dose: standard library concentration; 72 h.
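Note: cells treated in 1,536-well plates, then fixed and DAPI-stained, with nuclei counted from automated high-throughput microscope images.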

Row | Structure (SMILES) | cell count [%]
1 | NC(=O)c1ccc(N(C(N)=O)c2c(F)cccc2F)nc1-c1ccc(F)cc1F + C#Cc1cccc(Nc2ncnc3cc(OCCOC)c(OCCOC)cc23)c1 [erlotinib] (first compound 2 µM, partner dose 4 µM) | 64.8
2 | NC(=O)c1ccc(N(C(N)=O)c2c(F)cccc2F)nc1-c1ccc(F)cc1F + CC(=O)O[C@@]12CO[C@@H]1C[C@H](O)[C@@]1(C)C(=O)[C@H](O)C3=C(C)[C@@H](OC(=O)[C@H](O)[C@@H](NC(=O)OC(C)(C)C)c4ccccc4)C[C@@](O)([C@@H](OC(=O)c4ccccc4)[C@H]21)C3(C)C [Docetaxel] (first compound 2 µM, partner dose 0.0005 µM) | 56.7
3 | CCCCCCCCc1ccc(CCC(N)(CO)CO)cc1 [fingolimod] + CO[C@H]1C[C@@H]2CC[C@@H](C)[C@@](O)(O2)C(=O)C(=O)N2CCCC[C@H]2C(=O)O[C@H]([C@H](C)C[C@@H]2CC[C@@H](OCCO)[C@H](OC)C2)CC(=O)[C@H](C)/C=C(\C)[C@@H](O)[C@@H](OC)C(=O)[C@H](C)C[C@H](C)/C=C/C=C/C=C/1C [everolimus] (first compound 10 µM, partner dose 0.1 µM) | 2.46
4 | NC(=O)c1ccc(N(C(N)=O)c2c(F)cccc2F)nc1-c1ccc(F)cc1F + O=C(O)c1ccc2c(c1)nc(Nc1cccc(Cl)c1)c1ccncc12 [CX4945] (first compound 2 µM, partner dose 2 µM) | 70.4
5 | NC(=O)c1ccc(N(C(N)=O)c2c(F)cccc2F)nc1-c1ccc(F)cc1F + CN1CCN(c2ccc3nc(-c4c(N)c5c(F)cccc5[nH]c4=O)[nH]c3c2)CC1 [Dovitinib] (first compound 2 µM, partner dose 0.5 µM) | 90.1
6 | NC(=O)c1ccc(N(C(N)=O)c2c(F)cccc2F)nc1-c1ccc(F)cc1F + CCN(CC)CCNC(=O)c1c(C)[nH]c(/C=C2\C(=O)Nc3ccc(F)cc32)c1C [sunitinib] (first compound 2 µM, partner dose 2 µM) | 62.6
7 | Cc1ccc(NC(=O)c2cccc(N(C)C)c2)cc1NC(=O)c1ccc(O)cc1 + O=C(Nc1ccccc1)c1cc([N+](=O)[O-])ccc1Cl [GW9662] (first compound 10 µM, partner dose 10 µM) | 59.7
8 | NC(=O)c1ccc(N(C(N)=O)c2c(F)cccc2F)nc1-c1ccc(F)cc1F + N#Cc1c(O)c2c(-c3ccc(-c4ccccc4O)cc3)csc2[nH]c1=O [A769662] (first compound 2 µM, partner dose 10 µM) | 136
9 | CCCCCCCCc1ccc(CCC(N)(CO)CO)cc1 [fingolimod] + CCCCCCCCCCCC1=C(O)C(=O)C=C(O)C1=O [Embelin] (first compound 10 µM, partner dose 6 µM) | 4.67
10 | CCc1ccc(CCOc2ccc(CC3SC(=O)NC3=O)cc2)nc1 (configuration not stated) [pioglitazone] + Cn1cc(/C=C2\C(=O)Nc3cccnc32)c2ccccc21 [GW441756] (first compound 10 µM, partner dose 2 µM) | 85.6
11 | NC(=O)c1ccc(N(C(N)=O)c2c(F)cccc2F)nc1-c1ccc(F)cc1F + C=CCNC1=C2C[C@@H](C)C[C@H](OC)[C@H](O)[C@@H](C)/C=C(\C)[C@H](OC(N)=O)[C@@H](OC)/C=C\C=C(/C)C(=O)NC(=CC1=O)C2=O [Tanespimycin] (first compound 2 µM, partner dose 0.01 µM) | 65.6
12 | NC(=O)c1ccc(N(C(N)=O)c2c(F)cccc2F)nc1-c1ccc(F)cc1F + COc1ccc(C2=N[C@@H](c3ccc(Cl)cc3)[C@@H](c3ccc(Cl)cc3)N2C(=O)N2CCNC(=O)C2)c(OC(C)C)c1 [Nutlin-3] (first compound 2 µM, partner dose 0.5 µM) | 113
13 | NC(=O)c1ccc(N(C(N)=O)c2c(F)cccc2F)nc1-c1ccc(F)cc1F + OCc1c[nH]c2ccccc12 [Indole-3-carbinol] (first compound 2 µM, partner dose 4 µM) | 75.6
14 | NC(=O)c1ccc(N(C(N)=O)c2c(F)cccc2F)nc1-c1ccc(F)cc1F + CS(=O)(=O)CCNCc1ccc(-c2ccc3ncnc(Nc4ccc(OCc5cccc(F)c5)c(Cl)c4)c3c2)o1 [lapatinib] (first compound 2 µM, partner dose 4 µM) | 96.2
15 | NC(=O)c1ccc(N(C(N)=O)c2c(F)cccc2F)nc1-c1ccc(F)cc1F + COc1ccc(-c2ccc3c(N4CCOCC4)nc(N4C[C@@H](C)O[C@@H](C)C4)nc3n2)cc1CO [KU0063794] (first compound 2 µM, partner dose 0.1 µM) | 59.3
16 | COc1cc2c(Oc3ccc4[nH]c(C)cc4c3F)ncnc2cc1OCCCN1CCCC1 [cediranib] + CC(C)CCN1c2nc(Nc3cc(F)c(O)c(F)c3)ncc2N(C)C(=O)C1C [BID1870] (first compound 2 µM, partner dose 1 µM) | 70.8

Row | Structure (SMILES) | cell count [%]
17 | CCCCCCCCc1ccc(CCC(N)(CO)CO)cc1 [fingolimod] + CNC(=O)c1cc(Oc2ccc(NC(=O)Nc3ccc(Cl)c(C(F)(F)F)c3)cc2)ccn1 [sorafenib] (first compound 10 µM, partner dose 2 µM) | 2.48
18 | CC(C)(C)c1cnc(CSc2cnc(NC(=O)C3CCNCC3)s2)o1 + COC(=O)c1sccc1S(=O)(=O)Nc1ccc(Nc2ccccc2)cc1OC [GSK0660] (first compound 0.05 µM, partner dose 5 µM) | 70.3
19 | CCCCCCCCc1ccc(CCC(N)(CO)CO)cc1 [fingolimod] + O=S(=O)(c1ccccc1)N(CC(F)(F)F)c1ccc(C(O)(C(F)(F)F)C(F)(F)F)cc1 [T0901317] (first compound 10 µM, partner dose 7 µM) | 1.74
20 | Cc1ccc(NC(=O)c2cccc(N(C)C)c2)cc1NC(=O)c1ccc(O)cc1 + O=S(=O)(c1ccccc1)N(CC(F)(F)F)c1ccc(C(O)(C(F)(F)F)C(F)(F)F)cc1 [T0901317] (first compound 10 µM, partner dose 7 µM) | 87.9
21 | CN(NC(=O)CC(=O)NN(C)C(=S)c1ccccc1)C(=S)c1ccccc1 + Cn1cc(/C=C2\C(=O)Nc3cccnc32)c2ccccc21 [GW441756] (first compound 0.03 µM, partner dose 2 µM) | 11.7
22 | CCCCCCCCc1ccc(CCC(N)(CO)CO)cc1 [fingolimod] + C[C@@H](Oc1cc(-c2cnn(C3CCNCC3)c2)cnc1N)c1c(Cl)ccc(F)c1Cl [Crizotinib] (first compound 10 µM, partner dose 1 µM) | 5.1
23 | CCCCCCCCc1ccc(CCC(N)(CO)CO)cc1 [fingolimod] + Cn1c(=O)n(-c2ccc(C(C)(C)C#N)cc2)c2c3cc(-c4cnc5ccccc5c4)ccc3ncc21 [NVP-BEZ235] (first compound 10 µM, partner dose 0.02 µM) | 2.11
24 | COc1cc2c(Oc3ccc4[nH]c(C)cc4c3F)ncnc2cc1OCCCN1CCCC1 [cediranib] + COc1ccc(-c2ccc3c(N4CCOCC4)nc(N4C[C@@H](C)O[C@@H](C)C4)nc3n2)cc1CO [KU0063794] (first compound 2 µM, partner dose 0.1 µM) | 74.7
25 | NC(=O)c1ccc(N(C(N)=O)c2c(F)cccc2F)nc1-c1ccc(F)cc1F + CCCCCCCCc1ccc(CCC(N)(CO)CO)cc1 [fingolimod] (first compound 2 µM, partner dose 10 µM) | 5.95
26 | NC(=O)c1ccc(N(C(N)=O)c2c(F)cccc2F)nc1-c1ccc(F)cc1F + COc1ccc(COc2ccc(Cc3cnc(N)nc3N)cc2OC)cc1 [GW2580] (first compound 2 µM, partner dose 5 µM) | 112
27 | CC(C)(C)c1cnc(CSc2cnc(NC(=O)C3CCNCC3)s2)o1 + O=C(O)C(=O)Nc1sc2c(c1C(=O)O)CCNC2 [TCS401] (first compound 0.05 µM, partner dose 8.33333 µM) | 77.1
28 | NC(=O)c1ccc(N(C(N)=O)c2c(F)cccc2F)nc1-c1ccc(F)cc1F + Nc1ncn([C@H]2C[C@H](O)[C@@H](CO)O2)c(=O)n1 [decitabine] (first compound 2 µM, partner dose 0.5 µM) | 74.2
29 | CCCCCCCCc1ccc(CCC(N)(CO)CO)cc1 [fingolimod] + CS(=O)(=O)CCNCc1ccc(-c2ccc3ncnc(Nc4ccc(OCc5cccc(F)c5)c(Cl)c4)c3c2)o1 [lapatinib] (first compound 10 µM, partner dose 4 µM) | 2.52
30 | CCCCCCCCc1ccc(CCC(N)(CO)CO)cc1 [fingolimod] + CN1CCN(c2ccc3nc(-c4c(N)c5c(F)cccc5[nH]c4=O)[nH]c3c2)CC1 [Dovitinib] (first compound 10 µM, partner dose 0.5 µM) | 5.57
31 | CCCCCCCCc1ccc(CCC(N)(CO)CO)cc1 [fingolimod] + CC(=O)c1c(C)c2cnc(Nc3ccc(N4CCNCC4)cn3)nc2n(C2CCCC2)c1=O [palbociclib] (first compound 10 µM, partner dose 0.2 µM) | 0.582
32 | CCCCCCCCc1ccc(CCC(N)(CO)CO)cc1 [fingolimod] + COCC[n+]1c2c(n(Cc3cnccn3)c1C)C(=O)c1ccccc1C2=O [YM155] (first compound 10 µM, partner dose 0.002 µM) | 4.42
